Measurements reported in publication PMC10470960.
Where a chain is given by its changes, count along the chain named. Results are given in words; binding and its absence hold for the method and conditions named. Some results given as binding are weak or reduced against the parent protein; the word gives no strength. Tags and fused reporters may be left off the sequences shown.

Legend:
Test in all cases: two-hybrid; one-hybrid assay: Kar4p-Gal4 DNA-binding domain recruits endogenous Ste12p to drive the HIS3 reporter in PJ69-4A; 10-fold serial dilutions on SC-HIS with 3 uM alpha-factor, 30 degrees; graded ++++ to -
[1] = molecular target: T1, Kar4p Q132K fused to the Gal4p DNA-binding domain (S. cerevisiae) (UniProt P25583)
T1 sequence: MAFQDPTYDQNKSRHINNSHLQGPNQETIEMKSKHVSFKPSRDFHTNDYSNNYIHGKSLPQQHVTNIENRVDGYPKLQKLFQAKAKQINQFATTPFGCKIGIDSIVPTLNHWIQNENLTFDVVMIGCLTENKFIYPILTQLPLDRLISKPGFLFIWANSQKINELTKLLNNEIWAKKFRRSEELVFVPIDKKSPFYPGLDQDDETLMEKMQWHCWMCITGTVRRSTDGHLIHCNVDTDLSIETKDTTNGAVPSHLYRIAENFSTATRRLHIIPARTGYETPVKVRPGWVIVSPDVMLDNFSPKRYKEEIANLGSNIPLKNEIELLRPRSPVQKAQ

[2] = molecular target: T2, Kar4p P293L fused to the Gal4p DNA-binding domain (S. cerevisiae) (UniProt P25583)
T2 sequence: T1 sequence with K132Q, P293L

[3] = molecular target: T3, Kar4p C127Y fused to the Gal4p DNA-binding domain (S. cerevisiae) (UniProt P25583)
T3 sequence: T1 sequence with C127Y, K132Q

[4] = molecular target: T4, Kar4p H213Y fused to the Gal4p DNA-binding domain (S. cerevisiae) (UniProt P25583)
T4 sequence: T1 sequence with K132Q, H213Y

[5] = molecular target: T5, Kar4p A310Stop fused to the Gal4p DNA-binding domain (S. cerevisiae) (UniProt P25583)
T5 sequence: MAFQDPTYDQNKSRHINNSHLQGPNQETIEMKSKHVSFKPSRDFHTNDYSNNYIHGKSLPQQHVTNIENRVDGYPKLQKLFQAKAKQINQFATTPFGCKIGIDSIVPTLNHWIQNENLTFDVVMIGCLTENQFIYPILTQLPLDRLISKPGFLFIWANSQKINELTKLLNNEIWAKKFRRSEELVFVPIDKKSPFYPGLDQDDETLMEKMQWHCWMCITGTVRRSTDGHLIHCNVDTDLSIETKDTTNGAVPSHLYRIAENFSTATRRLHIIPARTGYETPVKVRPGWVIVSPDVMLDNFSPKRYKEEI

[6] = molecular target: T6, Kar4p E260G fused to the Gal4p DNA-binding domain (S. cerevisiae) (UniProt P25583)
T6 sequence: T1 sequence with K132Q, E260G

- binding [1]: binds
- binding [2]: no binding
- binding [3]: binds
- binding [4]: binds
- binding [5]: binds
- binding [6]: binds
B1: Ste12p (protein, UniProt P13574 1-688)
chain: MKVQITNSRTEEILKVQANNENDEVSKATPGEVEESLRLIGDLKFFLATAPVNWQENQIIRRYYLNSGQGFVSCVFWNNLYYITGTDIVKCCLYRMQKFGREVVQKKKFEEGIFSDLRNLKCGIDATLEQPKSEFLSFLFRNMCLKTQKKQKVFFWFSVAHDKLFADALERDLKRESLNQPSTTKPVNEPALSFSYDSSSDKPLYDQLLQHLDSRRPSSTTKSDNSPPKLESENFKDNELVTVTNQPLLGVGLMDDDAPESPSQINDFIPQKLIIEPNTLELNGLTEETPHDLPKNTAKGRDEEDFPLDYFPVSVEYPTEENAFDPFPPQAFTPAAPSMPISYDNVNERDSMPVNSLLNRYPYQLSVAPTFPVPPSSSRQHFMTNRDFYSSNNNKEKLVSPSDPTSYMKYDEPVMDFDESRPNENCTNAKSHNSGQQTKQHQLYSNNFQQSYPNGMVPGYYPKMPYNPMGGDPLLDQAFYGADDFFFPPEGCDNNMLYPQTATSWNVLPPQAMQPAPTYVGRPYTPNYRSTPGSAMFPYMQSSNSMQWNTAVSPYSSRAPSTTAKNYPPSTFYSQNINQYPRRRTVGMKSSQGNVPTGNKQSVGKSAKISKPLHIKTSAYQKQYKINLETKARPSAGDEDSAHPDKNKEISMPTPDSNTLVVQSEEGGAHSLEVDTNRRSDKNLPDAT
